Where two headings read alike, the source gives them in different places. No constants are given. Whether binding was seen depends on the method and setting. For some assays here: Binding seen in cells or lysates may run through a third protein. Some entries that bind do so weakly or less than the wild type. For some assays here: Where a sequence is shown, tags or fusion partners need not be part of it.
B1: StrepII+Flag (SF)-tagged vIRF-2 (protein, UniProt Q2HR71 1-680)
chain: MPRYTESEWLTDFIIDALDSGRFWGVGWLDEQKRIFTVPGRNRRERMPEGFDDFYEAFLEERRRHGLPEIPETETGLGCFGRLLRTANRARQERPFTIYKGKMKLNRWIMTPRPYKGCEGCLVYLTQEPAMKNMLKALFGIYPHDDKHREKALRRSLRKKAQREAARKQAAAVATPTTSSAAEVSSRSQSEDTESSDSENELWVGAQGFVGRDMHSLFFEEPEPSGFGSSGQSSSLLAPDSPRPSTSQVQGPLHVHTPTDLCLPTGGLPSPVIFPHETQGLLAPPAGQSQTPFSPEGPVPSHVSGLDDCLPMVDHIEGCLLDLLSDVGQELPDLGDLGELLCETASPQGPMQSEGGEEGSTESVSVLPATHPLESSAPGASVMGSGQELPDLGDLSELLCETASPQGPMQSEGGEEGSTESVSVLPATHPLESSAPGASVMGSSFQASDNVDDFIDCIPPLCRDDRDVEDQEKADQTFYWYGSDMRPKVLTATQSVAAYLSKKQAIYKVGDKLVPLVVEVYYFGEKVKTHFDLTGGIVICSQVPEASPEHICQTVPPYKCLLPRTAHCSVDANRTLEQTLDRFSMGVVAIGTNMGIFLKGLLEYPAYFVGNASRRRIGKCRPLSHRHEIQQAFDVERHNREPEGSRYASLFLGRRPSPEYDWDHYPVILHIYLAPFYHRD

By UniProt entry, the sequences of proteins in these tests, tags left out. Residues count along the entry.
UniProt P29597: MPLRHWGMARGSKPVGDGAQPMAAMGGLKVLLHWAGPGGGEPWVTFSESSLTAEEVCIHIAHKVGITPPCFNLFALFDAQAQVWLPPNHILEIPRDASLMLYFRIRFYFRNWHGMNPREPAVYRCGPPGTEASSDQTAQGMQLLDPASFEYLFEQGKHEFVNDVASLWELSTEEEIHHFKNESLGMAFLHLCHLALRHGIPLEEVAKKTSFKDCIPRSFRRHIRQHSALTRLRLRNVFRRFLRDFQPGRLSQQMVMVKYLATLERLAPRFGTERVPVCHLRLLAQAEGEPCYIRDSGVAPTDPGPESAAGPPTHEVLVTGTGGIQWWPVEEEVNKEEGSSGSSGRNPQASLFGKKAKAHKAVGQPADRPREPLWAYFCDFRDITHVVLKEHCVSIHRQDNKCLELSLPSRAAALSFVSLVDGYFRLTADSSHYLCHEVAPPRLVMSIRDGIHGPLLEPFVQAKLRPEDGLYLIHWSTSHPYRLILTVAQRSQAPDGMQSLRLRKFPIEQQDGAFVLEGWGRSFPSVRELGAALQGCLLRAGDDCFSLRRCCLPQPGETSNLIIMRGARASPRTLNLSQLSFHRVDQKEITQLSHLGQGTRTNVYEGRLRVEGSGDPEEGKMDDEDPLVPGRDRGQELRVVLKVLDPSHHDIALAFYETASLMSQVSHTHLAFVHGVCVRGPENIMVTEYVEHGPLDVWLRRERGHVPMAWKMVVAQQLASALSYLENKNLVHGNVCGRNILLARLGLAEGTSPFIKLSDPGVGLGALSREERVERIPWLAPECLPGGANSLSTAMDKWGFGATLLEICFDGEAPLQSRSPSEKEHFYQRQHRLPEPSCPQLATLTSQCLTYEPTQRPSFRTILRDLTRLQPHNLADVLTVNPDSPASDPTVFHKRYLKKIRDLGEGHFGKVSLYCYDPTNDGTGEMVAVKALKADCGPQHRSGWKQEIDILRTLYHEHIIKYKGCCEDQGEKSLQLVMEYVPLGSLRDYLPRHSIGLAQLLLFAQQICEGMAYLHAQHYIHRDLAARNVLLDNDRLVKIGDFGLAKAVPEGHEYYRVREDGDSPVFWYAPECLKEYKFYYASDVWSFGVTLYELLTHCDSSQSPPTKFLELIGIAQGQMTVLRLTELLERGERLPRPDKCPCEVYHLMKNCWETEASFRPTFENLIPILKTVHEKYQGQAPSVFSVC
UniProt Q93009: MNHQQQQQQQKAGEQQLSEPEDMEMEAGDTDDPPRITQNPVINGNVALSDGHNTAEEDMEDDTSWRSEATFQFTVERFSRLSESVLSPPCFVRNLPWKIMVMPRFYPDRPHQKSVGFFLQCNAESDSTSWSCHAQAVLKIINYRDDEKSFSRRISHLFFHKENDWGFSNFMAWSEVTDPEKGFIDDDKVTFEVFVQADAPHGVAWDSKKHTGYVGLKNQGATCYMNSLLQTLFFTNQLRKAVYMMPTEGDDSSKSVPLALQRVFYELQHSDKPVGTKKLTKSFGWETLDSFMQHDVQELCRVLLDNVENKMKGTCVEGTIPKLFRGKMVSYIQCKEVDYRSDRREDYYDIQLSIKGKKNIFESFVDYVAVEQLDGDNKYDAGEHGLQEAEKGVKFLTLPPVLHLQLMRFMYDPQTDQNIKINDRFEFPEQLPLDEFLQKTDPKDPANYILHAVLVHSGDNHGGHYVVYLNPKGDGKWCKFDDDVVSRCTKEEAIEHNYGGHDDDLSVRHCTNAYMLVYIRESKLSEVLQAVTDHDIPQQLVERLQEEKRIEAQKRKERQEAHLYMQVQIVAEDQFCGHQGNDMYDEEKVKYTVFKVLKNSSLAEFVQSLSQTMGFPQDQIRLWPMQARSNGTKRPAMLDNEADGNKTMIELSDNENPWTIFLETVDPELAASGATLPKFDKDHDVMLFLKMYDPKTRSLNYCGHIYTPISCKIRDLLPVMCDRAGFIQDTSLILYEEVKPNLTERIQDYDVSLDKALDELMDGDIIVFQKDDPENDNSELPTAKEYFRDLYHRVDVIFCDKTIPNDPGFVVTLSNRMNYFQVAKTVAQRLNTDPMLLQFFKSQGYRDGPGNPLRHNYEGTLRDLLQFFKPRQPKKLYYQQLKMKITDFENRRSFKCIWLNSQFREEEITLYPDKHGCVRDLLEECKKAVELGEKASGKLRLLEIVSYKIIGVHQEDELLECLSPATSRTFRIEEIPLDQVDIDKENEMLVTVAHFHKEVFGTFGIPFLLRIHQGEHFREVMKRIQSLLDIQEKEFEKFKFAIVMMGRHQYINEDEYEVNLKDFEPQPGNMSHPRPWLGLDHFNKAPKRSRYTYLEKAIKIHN
UniProt P40763: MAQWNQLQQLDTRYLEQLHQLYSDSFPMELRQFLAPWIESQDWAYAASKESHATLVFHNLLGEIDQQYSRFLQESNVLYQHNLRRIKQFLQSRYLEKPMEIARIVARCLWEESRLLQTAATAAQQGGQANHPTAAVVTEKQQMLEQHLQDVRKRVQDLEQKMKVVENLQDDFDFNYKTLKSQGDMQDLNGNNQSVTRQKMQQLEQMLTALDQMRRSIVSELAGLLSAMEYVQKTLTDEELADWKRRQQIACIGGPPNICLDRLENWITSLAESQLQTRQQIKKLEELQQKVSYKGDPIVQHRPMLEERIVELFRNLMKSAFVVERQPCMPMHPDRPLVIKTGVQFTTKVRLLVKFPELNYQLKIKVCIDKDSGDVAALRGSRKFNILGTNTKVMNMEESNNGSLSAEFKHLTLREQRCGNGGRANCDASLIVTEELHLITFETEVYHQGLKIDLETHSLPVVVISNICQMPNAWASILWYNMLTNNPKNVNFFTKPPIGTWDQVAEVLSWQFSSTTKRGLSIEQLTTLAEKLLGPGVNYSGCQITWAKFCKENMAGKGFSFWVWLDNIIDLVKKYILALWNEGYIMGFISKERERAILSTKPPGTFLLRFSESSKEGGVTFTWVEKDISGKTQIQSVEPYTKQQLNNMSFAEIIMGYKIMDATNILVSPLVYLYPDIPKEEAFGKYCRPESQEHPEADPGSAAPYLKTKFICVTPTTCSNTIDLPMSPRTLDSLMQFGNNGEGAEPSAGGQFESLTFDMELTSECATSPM
UniProt P52630: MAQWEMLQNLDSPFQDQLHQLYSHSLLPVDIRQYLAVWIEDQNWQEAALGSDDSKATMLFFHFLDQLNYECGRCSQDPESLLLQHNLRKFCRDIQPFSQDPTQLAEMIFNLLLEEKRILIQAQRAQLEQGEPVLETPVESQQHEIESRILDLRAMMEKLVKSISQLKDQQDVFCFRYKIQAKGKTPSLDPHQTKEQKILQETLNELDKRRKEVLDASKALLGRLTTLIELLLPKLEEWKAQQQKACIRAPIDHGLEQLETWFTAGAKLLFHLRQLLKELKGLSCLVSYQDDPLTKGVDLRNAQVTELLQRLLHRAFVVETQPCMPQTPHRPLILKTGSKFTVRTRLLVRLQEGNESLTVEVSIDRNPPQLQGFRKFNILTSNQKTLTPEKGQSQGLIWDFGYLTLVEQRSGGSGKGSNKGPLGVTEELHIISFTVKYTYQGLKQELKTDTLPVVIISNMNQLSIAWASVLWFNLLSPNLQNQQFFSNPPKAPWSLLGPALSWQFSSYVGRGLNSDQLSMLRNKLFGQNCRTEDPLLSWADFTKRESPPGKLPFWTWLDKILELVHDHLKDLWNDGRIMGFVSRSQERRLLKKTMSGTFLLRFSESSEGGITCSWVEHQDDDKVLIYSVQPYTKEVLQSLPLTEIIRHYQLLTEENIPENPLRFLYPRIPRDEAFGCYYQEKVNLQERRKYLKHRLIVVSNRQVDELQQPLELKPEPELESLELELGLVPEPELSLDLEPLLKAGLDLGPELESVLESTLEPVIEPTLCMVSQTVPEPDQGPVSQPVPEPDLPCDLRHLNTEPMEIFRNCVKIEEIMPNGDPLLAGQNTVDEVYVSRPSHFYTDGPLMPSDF
UniProt P40189, residues 23-918: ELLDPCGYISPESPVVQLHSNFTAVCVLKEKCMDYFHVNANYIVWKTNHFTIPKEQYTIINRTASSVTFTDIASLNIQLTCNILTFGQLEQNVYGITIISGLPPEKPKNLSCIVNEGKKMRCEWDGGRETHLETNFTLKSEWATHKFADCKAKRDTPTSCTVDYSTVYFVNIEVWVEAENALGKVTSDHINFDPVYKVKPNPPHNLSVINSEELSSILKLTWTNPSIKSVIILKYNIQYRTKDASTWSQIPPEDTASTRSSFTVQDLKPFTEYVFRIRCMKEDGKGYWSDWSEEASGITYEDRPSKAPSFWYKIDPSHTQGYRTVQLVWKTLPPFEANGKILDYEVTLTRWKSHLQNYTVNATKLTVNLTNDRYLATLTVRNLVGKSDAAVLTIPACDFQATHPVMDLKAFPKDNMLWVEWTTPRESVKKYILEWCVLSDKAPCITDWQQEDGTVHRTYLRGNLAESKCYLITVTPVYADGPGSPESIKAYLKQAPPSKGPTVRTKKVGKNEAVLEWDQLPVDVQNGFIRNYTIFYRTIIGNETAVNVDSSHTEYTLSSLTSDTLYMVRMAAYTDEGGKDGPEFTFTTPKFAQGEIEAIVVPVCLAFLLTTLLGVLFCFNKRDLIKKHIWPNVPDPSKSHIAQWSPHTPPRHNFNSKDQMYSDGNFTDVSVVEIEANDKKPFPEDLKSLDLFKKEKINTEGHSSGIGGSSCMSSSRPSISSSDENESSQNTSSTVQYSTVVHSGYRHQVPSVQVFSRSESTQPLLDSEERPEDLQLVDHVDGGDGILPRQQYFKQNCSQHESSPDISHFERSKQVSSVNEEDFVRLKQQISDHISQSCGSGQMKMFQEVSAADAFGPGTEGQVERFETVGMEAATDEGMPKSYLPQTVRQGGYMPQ
UniProt P42224: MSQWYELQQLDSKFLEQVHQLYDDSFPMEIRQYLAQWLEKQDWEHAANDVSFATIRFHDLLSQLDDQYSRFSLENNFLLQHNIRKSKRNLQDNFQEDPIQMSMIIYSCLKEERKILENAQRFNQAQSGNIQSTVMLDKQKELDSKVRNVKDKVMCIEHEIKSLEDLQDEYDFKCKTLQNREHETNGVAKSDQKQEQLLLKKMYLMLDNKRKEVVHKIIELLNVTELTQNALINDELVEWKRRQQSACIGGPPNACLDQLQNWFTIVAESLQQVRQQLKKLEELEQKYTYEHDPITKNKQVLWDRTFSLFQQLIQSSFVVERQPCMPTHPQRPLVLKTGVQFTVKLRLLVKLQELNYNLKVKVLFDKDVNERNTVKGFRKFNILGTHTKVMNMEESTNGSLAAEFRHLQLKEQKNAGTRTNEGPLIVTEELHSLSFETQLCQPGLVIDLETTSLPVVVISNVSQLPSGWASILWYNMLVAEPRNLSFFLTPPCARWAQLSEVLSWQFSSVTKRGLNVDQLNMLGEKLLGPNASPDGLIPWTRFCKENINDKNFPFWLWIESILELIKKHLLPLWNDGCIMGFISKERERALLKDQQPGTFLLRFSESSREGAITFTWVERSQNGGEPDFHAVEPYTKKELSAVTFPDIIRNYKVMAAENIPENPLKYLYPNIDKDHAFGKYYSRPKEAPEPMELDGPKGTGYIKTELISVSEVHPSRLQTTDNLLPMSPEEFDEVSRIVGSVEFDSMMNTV

What was measured:
[1] = molecular target: CBD-tagged TYK2 (UniProt P29597); test: co-IP
[2] = molecular target: USP7 (UniProt Q93009); test: co-IP
[3] = molecular target: CBD (chitin-binding domain)-tagged STAT3 (UniProt P40763); test: co-IP
[4] = molecular target: StrepII+Flag (SF)-tagged vIRF-1 (HHV-8 viral interferon regulatory factor 1), wild type (human herpesvirus 8 (HHV-8)) (UniProt F5HF68); test: co-IP
[5] = molecular target: Flag-tagged vIRF-1 deletion variant Δ3 (deleted of residues 48-72) (human herpesvirus 8 (HHV-8)) (UniProt F5HF68); test: co-IP
[6] = molecular target: Flag-tagged vIRF-1 deletion variant Δ2 (deleted of residues 23-47) (human herpesvirus 8 (HHV-8)) (UniProt F5HF68); test: co-IP
[7] = molecular target: S-tagged TYK2, vector-expressed (UniProt P29597); test: co-IP
[8] = molecular target: TYK2 of the preliminary coprecipitation-based screening (UniProt P29597); test: co-IP
[9] = molecular target: Flag-tagged vIRF-1 deletion variant Δ9 (Δ198–222) (human herpesvirus 8 (HHV-8)) (UniProt F5HF68); test: co-IP
[10] = molecular target: virus-expressed vIRF-1 of TRExBCBL1-RTA (iBCBL-1) PEL cells (human herpesvirus 8 (HHV-8)) (UniProt F5HF68); test: co-IP
[11] = molecular target: GST-tagged vIRF-1, bacterially derived (human herpesvirus 8 (HHV-8)) (UniProt F5HF68); test: pull-down; both purified
[12] = molecular target: CBD (chitin-binding domain)-tagged STAT3 (UniProt P40763); test: co-IP; remark: listed apart in the source

| Molecule | binding [4] | binding [5] | binding [6] | also measured |
| --- | --- | --- | --- | --- |
| StrepII+Flag (SF)-tagged vIRF-1 (HHV-8 viral interferon regulatory factor 1), wild type (from UniProt F5HF68 1-449) |  |  |  | binding [1]: binds; binding [2]: binds; binding [3]: binds |
| endogenous STAT2 of 293T cells (from UniProt P52630 1-851) | binds | binds | binds |  |
| endogenous active, tyrosine-phosphorylated STAT3 (pSTAT3) of 293T cells (from UniProt P40763 1-770) | binds |  |  |  |
| gp130 cytokine receptor (signal transducer) in 293T lysates (from UniProt P40189 23-918) |  |  |  | binding [7]: binds |
| Flag-tagged vIRF-1 deletion variant Δ9 (Δ198–222) (from UniProt F5HF68 1-449) |  |  |  | binding [1]: no binding; binding [8]: no binding |
| endogenous STAT3 (total STAT3) of 293T cells (from UniProt P40763 1-770) | binds | no binding | no binding | binding [9]: binds |
| Flag-tagged vIRF-1 residues 1–72 (peptide 1–72) (from UniProt F5HF68 1-72) (domain or fragment) |  |  |  | binding [2]: binds; binding [3]: binds |
| endogenous STAT3 of TRExBCBL1-RTA (iBCBL-1) PEL cells (from UniProt P40763 1-770) |  |  |  | binding [10]: binds |
| CBD-tagged STAT1, vector-expressed (from UniProt P42224 1-750) | binds | binds | binds |  |
| S-tagged TYK2, vector-expressed (from UniProt P29597 1-1187) (enzyme) | binds | binds | binds | binding [9]: no binding |
| Flag-tagged TYK2, bacterially produced and purified (from UniProt P29597 1-1187) (enzyme) |  |  |  | binding [11]: binds |
| B1 |  |  |  | binding [12]: no binding |

Reference: paper PMC10695398 (PLOS Pathogens, 2023)
